{
  "source": "PubChem BioAssay",
  "key": {"[1]": {"molecular_target": "Solute carrier family 12 member 5 (Homo sapiens) (UniProt Q9H2X9)", "sequence (Q9H2X9 whole entry, looked up)": "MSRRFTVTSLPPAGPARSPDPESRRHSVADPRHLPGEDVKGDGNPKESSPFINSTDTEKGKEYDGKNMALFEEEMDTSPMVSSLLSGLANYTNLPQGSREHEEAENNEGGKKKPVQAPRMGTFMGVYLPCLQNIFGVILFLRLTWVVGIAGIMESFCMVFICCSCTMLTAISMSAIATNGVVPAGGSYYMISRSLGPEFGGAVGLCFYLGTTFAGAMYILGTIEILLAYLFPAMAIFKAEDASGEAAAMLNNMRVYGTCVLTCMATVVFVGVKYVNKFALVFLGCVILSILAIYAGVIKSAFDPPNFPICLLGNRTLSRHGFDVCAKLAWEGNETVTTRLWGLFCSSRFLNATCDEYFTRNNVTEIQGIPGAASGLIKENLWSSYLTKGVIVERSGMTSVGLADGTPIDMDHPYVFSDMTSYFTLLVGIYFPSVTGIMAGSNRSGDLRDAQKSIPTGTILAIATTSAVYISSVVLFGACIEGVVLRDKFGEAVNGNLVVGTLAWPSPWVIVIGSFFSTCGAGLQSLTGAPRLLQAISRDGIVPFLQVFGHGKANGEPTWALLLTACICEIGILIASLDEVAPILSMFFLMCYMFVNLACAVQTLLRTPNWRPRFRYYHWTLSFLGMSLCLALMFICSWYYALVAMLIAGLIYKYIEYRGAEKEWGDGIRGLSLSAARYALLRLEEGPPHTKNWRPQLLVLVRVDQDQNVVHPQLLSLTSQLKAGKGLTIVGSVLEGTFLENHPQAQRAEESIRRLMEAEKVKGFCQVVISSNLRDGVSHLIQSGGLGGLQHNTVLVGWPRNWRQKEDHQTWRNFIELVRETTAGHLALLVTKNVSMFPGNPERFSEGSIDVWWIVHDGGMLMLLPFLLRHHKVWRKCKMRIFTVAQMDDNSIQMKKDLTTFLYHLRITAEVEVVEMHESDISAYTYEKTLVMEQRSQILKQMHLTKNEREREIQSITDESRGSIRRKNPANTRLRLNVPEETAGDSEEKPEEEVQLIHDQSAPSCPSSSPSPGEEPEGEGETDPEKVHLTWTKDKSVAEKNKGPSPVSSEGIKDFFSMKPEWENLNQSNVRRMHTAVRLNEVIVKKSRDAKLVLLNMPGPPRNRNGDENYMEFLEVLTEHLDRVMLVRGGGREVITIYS", "assay": "modulation of KCC2 thallium flux in HEK cells – cell-based, ouabain, retest, confirmation (AID 1717;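 active means thallium flux slope beyond 3 SD from same-plate DMSO control mean in most replicates, usually higher, sometimes lower; inconclusive means repeat tests gave conflicting results; inactive means no significant difference from controls in most replicates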;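 further: slope of initial-normalized fluorescence between seconds 10 and 20 after thallium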)", "settings": "HEK293-KCC2, thallium flux FluoZin2 fluorescence, at 10 µM, bidirectional: low = inhibitor, high = activator"}, "[2]": {"assay": "native HEK Tl+ uptake effects, second counter-screen – HEK cells, counterscreen 2, counter-screen for KCC2 modulator project, confirmation (AID 1718);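 further: run without ouabain in cells lacking the KCC2 cotransporter; slope of fluorescence scaled to its starting value between 10 and 20 s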", "settings": "HEK293 parental, thallium flux FluoZin-2 fluorescence slope; at 10 µM", "outline": "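System: Parental HEK cells | Also added: Thallium sulfate stimulus buffer | Compound dosing: Single 10 µM final compound dose, 0.1% DMSO | Schedule: Overnight cell culture at 37 °C, 48 min dye loading, compound before thallium | Signal: FluoZin-2 fluorescence kinetics | Repeats: Replicate wells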"}},
  "note": "Inconclusive results, whose numbers are uncertain, are shown with a selection of clear calls. Calls of active or inactive are those of the source.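 How the source made its calls, unless noted: active means thallium flux slope above the same plate's solvent-control mean plus 3 SD in both duplicate wells; inconclusive means duplicate wells that disagreed; inactive means the rest.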",
  "data": [
    {"smiles": "CC(=O)c1cccc(NC(=S)NC(=O)c2ccccc2)c1", "values": [
      {"measurement": "raw Tl+ flux slope (below DMSO = inhibition, above = activation)", "setting": "[1]", "result": "inconclusive: 0.0265"},
      {"measurement": "thallium flux slope", "setting": "[2]", "result": "active: 0.0162"}
    ]},
    {"smiles": "CCOC(=O)Cc1cc(=O)n2[nH]c(-c3ccccc3)c(-c3ccccc3)c2n1", "values": [
      {"measurement": "raw Tl+ flux slope (below DMSO = inhibition, above = activation)", "setting": "[1]", "result": "inconclusive: 0.0225"},
      {"measurement": "thallium flux slope", "setting": "[2]", "result": "active: 0.0138"}
    ]},
    {"smiles": "CN(C)c1ccc(/C=N/n2c(-c3ccccc3Br)n[nH]c2=S)cc1", "values": [
      {"measurement": "raw Tl+ flux slope (below DMSO = inhibition, above = activation)", "setting": "[1]", "result": "inconclusive: 0.0203"},
      {"measurement": "thallium flux slope", "setting": "[2]", "result": "inactive: 0.0112"}
    ]},
    {"smiles": "O=[N+]([O-])c1cc(Cl)c(O)c2ncccc12", "values": [
      {"measurement": "raw Tl+ flux slope (below DMSO = inhibition, above = activation)", "setting": "[1]", "result": "inconclusive: 0.0257"},
      {"measurement": "thallium flux slope", "setting": "[2]", "result": "inconclusive: 0.011"}
    ]},
    {"smiles": "CCOC(=O)NC(=S)Nc1ccc(OC)cc1", "values": [
      {"measurement": "raw Tl+ flux slope (below DMSO = inhibition, above = activation)", "setting": "[1]", "result": "inconclusive: 0.0251"},
      {"measurement": "thallium flux slope", "setting": "[2]", "result": "active: 0.0169"}
    ]},
    {"smiles": "COc1cccc2cc(-c3nnc(SCC(=O)Nc4nc(C)cs4)n3C)oc12", "values": [
      {"measurement": "raw Tl+ flux slope (below DMSO = inhibition, above = activation)", "setting": "[1]", "result": "inactive: 0.0235"},
      {"measurement": "thallium flux slope", "setting": "[2]", "result": "inactive: 0.0103"}
    ]},
    {"smiles": "Cc1nc2c(-c3ccccc3)c(C)[nH]n2c(=O)c1Cc1ccccc1", "values": [
      {"measurement": "raw Tl+ flux slope (below DMSO = inhibition, above = activation)", "setting": "[1]", "result": "inconclusive: 0.0253"},
      {"measurement": "thallium flux slope", "setting": "[2]", "result": "active: 0.0164"}
    ]},
    {"smiles": "S=C(Nc1ccccc1)Nc1cccc(Cl)c1Cl", "values": [
      {"measurement": "raw Tl+ flux slope (below DMSO = inhibition, above = activation)", "setting": "[1]", "result": "inconclusive: 0.0249"},
      {"measurement": "thallium flux slope", "setting": "[2]", "result": "active: 0.0138"}
    ]},
    {"smiles": "CC(NC(=O)COC(=O)CC(c1ccccc1)c1ccccc1)c1ccccc1", "note": "(stereo not drawn)", "values": [
      {"measurement": "raw Tl+ flux slope (below DMSO = inhibition, above = activation)", "setting": "[1]", "result": "inactive: 0.0176"},
      {"measurement": "thallium flux slope", "setting": "[2]", "result": "inconclusive: 0.0085"}
    ]},
    {"smiles": "Cc1c(Cl)sn(-c2ccc(Cl)cc2)c1=O", "values": [
      {"measurement": "thallium flux slope", "setting": "[2]", "result": "inconclusive: 0.00845"}
    ]},
    {"smiles": "Cc1ccccc1-n1c(-c2csc3ccccc23)n[nH]c1=S", "values": [
      {"measurement": "thallium flux slope", "setting": "[2]", "result": "inconclusive: 0.011"}
    ]},
    {"smiles": "CN(C)S(=O)(=O)c1ccc(C(=O)Nc2ccccc2C(=O)O)cc1", "values": [
      {"measurement": "thallium flux slope", "setting": "[2]", "result": "inconclusive: 0.0103"}
    ]},
    {"smiles": "Cc1ccc2c(Cl)cc(Cl)c(OCC(=O)Nc3cccc(S(=O)(=O)N(C)C)c3)c2n1", "values": [
      {"measurement": "thallium flux slope", "setting": "[2]", "result": "inconclusive: 0.0117"}
    ]},
    {"smiles": "COc1cc(/C=C(\\C#N)C(=O)NCCc2ccccc2)cc(OC)c1O", "values": [
      {"measurement": "thallium flux slope", "setting": "[2]", "result": "inconclusive: 0.00786"}
    ]},
    {"smiles": "CCn1c(SCC(=O)Nc2nc3ccccc3s2)nc2c(c1=O)SC(C)C2", "note": "(stereo not drawn)", "values": [
      {"measurement": "thallium flux slope", "setting": "[2]", "result": "inactive: 0.00907"}
    ]},
    {"smiles": "CC(C)(C)C1C/C(=C/c2ccccn2)C(=O)/C(=C/c2ccccn2)C1", "note": "(stereo not drawn)", "values": [
      {"measurement": "thallium flux slope", "setting": "[2]", "result": "inconclusive: 0.0112"}
    ]},
    {"smiles": "O=C1NC(=S)S/C1=C/c1ccc(Oc2cnccn2)cc1", "values": [
      {"measurement": "thallium flux slope", "setting": "[2]", "result": "inconclusive: 0.0109"}
    ]},
    {"smiles": "CCOc1ccc(OCc2ccc(C(=O)N/N=C(\\C)c3ccccn3)cc2)cc1", "values": [
      {"measurement": "thallium flux slope", "setting": "[2]", "result": "inconclusive: 0.0127"}
    ]},
    {"smiles": "c1ccc(CCc2nn3c(Cc4ccccc4)nnc3s2)cc1", "values": [
      {"measurement": "thallium flux slope", "setting": "[2]", "result": "inactive: 0.0106"}
    ]},
    {"smiles": "Cc1ccc(NC(=S)NC(=O)c2c(-c3ccccc3Cl)noc2C)cc1", "values": [
      {"measurement": "thallium flux slope", "setting": "[2]", "result": "inconclusive: 0.011"}
    ]},
    {"smiles": "C=CCNC(=S)NNC(=O)COc1c(Cl)cc(Cl)cc1Cl", "values": [
      {"measurement": "thallium flux slope", "setting": "[2]", "result": "inconclusive: 0.0128"}
    ]},
    {"smiles": "CC(C)(C)c1ccc(COc2ccsc2C(=O)O)cc1", "values": [
      {"measurement": "thallium flux slope", "setting": "[2]", "result": "inconclusive: 0.0103"}
    ]},
    {"smiles": "O=C(NCC(c1cccs1)N1CCOCC1)c1ccccc1NS(=O)(=O)c1ccc(Cl)c([N+](=O)[O-])c1", "note": "(stereo not drawn)", "values": [
      {"measurement": "thallium flux slope", "setting": "[2]", "result": "inconclusive: 0.00974"}
    ]},
    {"smiles": "COc1cc(-n2nc(C)c3c2OC(N)=C(C#N)C3c2ccccc2)c(Cl)c(Br)c1O", "note": "(stereo not drawn)", "values": [
      {"measurement": "thallium flux slope", "setting": "[2]", "result": "inconclusive: 0.00911"}
    ]},
    {"smiles": "Cc1cc(=O)[nH]c(SCC(=O)Nc2ccc(Br)cc2)c1C#N", "values": [
      {"measurement": "thallium flux slope", "setting": "[2]", "result": "inconclusive: 0.00869"}
    ]},
    {"smiles": "Oc1ccccc1/C=N/NC(=S)NC1CC2CCC1C2", "note": "(stereo not drawn)", "values": [
      {"measurement": "thallium flux slope", "setting": "[2]", "result": "inconclusive: 0.00996"}
    ]},
    {"smiles": "Cc1ccc2c(C)nc(Nc3nc(CSc4nnc(C)s4)cc(=O)[nH]3)nc2c1", "values": [
      {"measurement": "thallium flux slope", "setting": "[2]", "result": "inconclusive: 0.0113"}
    ]},
    {"smiles": "Cc1ccc2c(c1)C(c1ccc(O)cc1)(c1ccc(O)cc1)C(=O)N2C", "values": [
      {"measurement": "thallium flux slope", "setting": "[2]", "result": "inconclusive: 0.0107"}
    ]},
    {"smiles": "Cc1ccccc1NC(=S)NNC(=O)c1cccc(Br)c1", "values": [
      {"measurement": "thallium flux slope", "setting": "[2]", "result": "inactive: 0.0126"}
    ]},
    {"smiles": "O=C(COc1ccc(Cl)cc1)NNC(=O)c1ccccn1", "values": [
      {"measurement": "thallium flux slope", "setting": "[2]", "result": "inconclusive: 0.0112"}
    ]},
    {"smiles": "S=c1[nH]nc(-c2ccccn2)n1/N=C/c1ccc(Cl)c(Cl)c1", "values": [
      {"measurement": "thallium flux slope", "setting": "[2]", "result": "active: 0.0306"}
    ]},
    {"smiles": "S=c1[nH]nc(COc2ccc(Cl)cc2)n1Cc1ccco1", "values": [
      {"measurement": "thallium flux slope", "setting": "[2]", "result": "inconclusive: 0.011"}
    ]},
    {"smiles": "O=c1c(-c2ccc(F)cc2)coc2cc(O)ccc12", "values": [
      {"measurement": "thallium flux slope", "setting": "[2]", "result": "inconclusive: 0.0105"}
    ]},
    {"smiles": "CCCCCn1c(CNC(=O)CCC)nc2ccccc21", "values": [
      {"measurement": "thallium flux slope", "setting": "[2]", "result": "inconclusive: 0.00846"}
    ]},
    {"smiles": "Oc1c(Cl)cc(Cl)c(Cl)c1Cc1c(O)c(Cl)cc(Cl)c1Cl", "values": [
      {"measurement": "thallium flux slope", "setting": "[2]", "result": "inactive: 0.0102"}
    ]},
    {"smiles": "CCN(CC)c1ccc2cc(-c3nc4ccccc4n3C)c(=O)oc2c1", "values": [
      {"measurement": "thallium flux slope", "setting": "[2]", "result": "inconclusive: 0.00764"}
    ]},
    {"smiles": "Oc1c(N=NC(=S)Nc2ccccc2F)c2ccccc2n1Cc1ccccc1F", "values": [
      {"measurement": "thallium flux slope", "setting": "[2]", "result": "inconclusive: 0.0135"}
    ]},
    {"smiles": "CCC1CCCCN1C(=O)CSc1nnc(-c2c[nH]c3ccccc23)o1", "note": "(stereo not drawn)", "values": [
      {"measurement": "thallium flux slope", "setting": "[2]", "result": "inconclusive: 0.01"}
    ]},
    {"smiles": "CC1(C)CC(n2c(=S)[nH]c3ccccc3c2=O)CCO1", "note": "(stereo not drawn)", "values": [
      {"measurement": "thallium flux slope", "setting": "[2]", "result": "inconclusive: 0.0135"}
    ]},
    {"smiles": "Cn1c(-c2ccc3c(c2)OCO3)cnc1NC(=O)CCC(=O)NCCc1ccccc1", "values": [
      {"measurement": "thallium flux slope", "setting": "[2]", "result": "inconclusive: 0.0106"}
    ]},
    {"smiles": "CC1C/C(=N\\NC(=O)c2ccc([N+](=O)[O-])cc2)CC(C)(C)C1", "note": "(stereo not drawn)", "values": [
      {"measurement": "thallium flux slope", "setting": "[2]", "result": "inconclusive: 0.0106"}
    ]},
    {"smiles": "O=[N+]([O-])c1ccc(O)c(C2=NNC(c3ccccc3F)C2)c1", "note": "(stereo not drawn)", "values": [
      {"measurement": "thallium flux slope", "setting": "[2]", "result": "inconclusive: 0.0126"}
    ]},
    {"smiles": "CCc1ccc(-c2cn(C3CCCCC3)c(=S)[nH]2)cc1", "values": [
      {"measurement": "thallium flux slope", "setting": "[2]", "result": "inconclusive: 0.0122"}
    ]},
    {"smiles": "CCn1c(SCc2nc(-c3ccccc3)no2)nnc1-c1cccs1", "values": [
      {"measurement": "thallium flux slope", "setting": "[2]", "result": "inconclusive: 0.0102"}
    ]},
    {"smiles": "O=C1NC(=O)/C(=C/c2ccccc2OCc2ccccc2)S1", "values": [
      {"measurement": "thallium flux slope", "setting": "[2]", "result": "inconclusive: 0.0112"}
    ]},
    {"smiles": "O=C(N/N=C/c1ccc(-c2cccc([N+](=O)[O-])c2)o1)c1ccccc1O", "values": [
      {"measurement": "thallium flux slope", "setting": "[2]", "result": "inconclusive: 0.0115"}
    ]},
    {"smiles": "C=CCn1c(SCC(=O)c2ccccc2)nnc1-c1ccc2c(c1)OCO2", "values": [
      {"measurement": "thallium flux slope", "setting": "[2]", "result": "inconclusive: 0.0113"}
    ]},
    {"smiles": "COc1ccc(NC(=O)COC(=O)c2ccc(NS(=O)(=O)/C=C/c3ccccc3)cc2)cc1", "values": [
      {"measurement": "thallium flux slope", "setting": "[2]", "result": "inconclusive: 0.0101"}
    ]},
    {"smiles": "COc1ccccc1OCc1ccc(C(=O)N2N=C(C(F)F)CC2(O)C(F)F)o1", "note": "(stereo not drawn)", "values": [
      {"measurement": "thallium flux slope", "setting": "[2]", "result": "inconclusive: 0.0104"}
    ]}
  ]
}
